# According to the supplement of paper PMC8728848:
# The list shows a part of the results.
# Key:
# Assay in all cases: glycan array binding signal (z-score within array); higher = stronger binding
# Conditions in all cases: glycan notation: IUPAC condensed, linker removed
# [1] = molecular target: Neu5Ac(a2-3)Gal(b1-3)[Fuc(a1-4)]GlcNAc(b1-3)Gal(b1-3)[Fuc(a1-4)]GlcNAc
# In short: (§1)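 The binding signal is a Z-score computed within each array. Data were drawn from 3228 arrays in the Consortium for Functional Glycomics database, restricted to those with a known protein sequence. Scores were averaged over arrays of the same protein sequence at different concentrations or buffers, and over linkers, and negative values can be taken as non-binding.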
# [2] = molecular target: Neu5Ac(a2-3)Gal(b1-3)[Fuc(a1-4)]GlcNAc(b1-3)Gal(b1-4)[Fuc(a1-3)]GlcNAc
# In short: as §1
# [3] = molecular target: Neu5Ac(a2-3)Gal(b1-3)[GlcNAc(b1-6)]GalNAc
# In short: as §1
# [4] = molecular target: Neu5Ac(a2-3)Gal(b1-3)[Neu5Ac(a2-6)]GalNAc
# In short: as §1
# [5] = molecular target: Neu5Ac(a2-3)Gal(b1-3)[Neu5Ac(a2-6)]GlcNAc(b1-3)[Fuc(a1-3)[Gal(b1-4)]GlcNAc(b1-6)]Gal(b1-4)Glc
# In short: as §1
# [6] = molecular target: Neu5Ac(a2-3)Gal(b1-3)]Neu5Ac(a2-3)Gal(b1-4)]GlcNAc
# In short: as §1
# Neu5Ac(a2-3)Gal(b1-4)Glc = molecular target: Neu5Ac(a2-3)Gal(b1-4)Glc
# In short: as §1
# [7] = molecular target: Neu5Ac(a2-3)Gal(b1-4)GlcNAc
# In short: as §1
# [8] = molecular target: Neu5Ac(a2-3)Gal(b1-4)GlcNAc(b1-2)Man
# In short: as §1
# [9] = molecular target: Neu5Ac(a2-3)Gal(b1-4)GlcNAc(b1-2)Man(a1-3)[GlcNAc(b1-4)][Neu5Ac(a2-3)Gal(b1-4)GlcNAc(b1-2)Man(a1-6)]Man(b1-4)GlcNAc(b1-4)GlcNAc
# In short: as §1
# [10] = molecular target: Neu5Ac(a2-3)Gal(b1-4)GlcNAc(b1-2)Man(a1-3)[Neu5Ac(a2-3)Gal(b1-4)GlcNAc(b1-2)Man(a1-6)]Man(b1-4)GlcNAc(b1-4)GlcNAc
# In short: as §1
# [11] = molecular target: Neu5Ac(a2-3)Gal(b1-4)GlcNAc(b1-2)Man(a1-3)[Neu5Ac(a2-3)Gal(b1-4)GlcNAc(b1-2)Man(a1-6)]Man(b1-4)GlcNAc(b1-4)[Fuc(a1-6)]GlcNAc
# In short: as §1
# [12] = molecular target: Neu5Ac(a2-3)Gal(b1-4)GlcNAc(b1-2)Man(a1-3)[Neu5Ac(a2-6)Gal(b1-4)GlcNAc(b1-2)Man(a1-6)]Man(b1-4)GlcNAc(b1-4)GlcNAc
# In short: as §1
# [13] = molecular target: Neu5Ac(a2-3)Gal(b1-4)GlcNAc(b1-2)[Neu5Ac(a2-3)Gal(b1-4)GlcNAc(b1-4)]Man(a1-3)[GlcNAc(b1-4)][Neu5Ac(a2-3)Gal(b1-4)GlcNAc(b1-2)[Neu5Ac(a2-3)Gal(b1-4)GlcNAc(b1-6)]Man(a1-6)]Man(b1-4)GlcNAc(b1-4)GlcNAc
# In short: as §1
# [14] = molecular target: Neu5Ac(a2-3)Gal(b1-4)GlcNAc(b1-2)[Neu5Ac(a2-3)Gal(b1-4)GlcNAc(b1-4)]Man(a1-3)[GlcNAc(b1-4)][Neu5Ac(a2-3)Gal(b1-4)GlcNAc(b1-4)Man(a1-6)]Man(b1-4)GlcNAc(b1-4)GlcNAc
# In short: as §1
# [15] = molecular target: Neu5Ac(a2-3)Gal(b1-4)GlcNAc(b1-2)[Neu5Ac(a2-3)Gal(b1-4)GlcNAc(b1-6)]Man(a1-6)[Neu5Ac(a2-3)Gal(b1-4)GlcNAc(b1-2)Man(a1-3)]Man(b1-4)GlcNAc(b1-4)GlcNAc
# In short: as §1
# [16] = molecular target: Neu5Ac(a2-3)Gal(b1-4)GlcNAc(b1-2)[Neu5Ac(a2-3)Gal(b1-4)GlcNAc(b1-6)]Man(a1-6)[Neu5Ac(a2-3)Gal(b1-4)GlcNAc(b1-2)Man(a1-3)][GlcNAc(b1-4)]Man(b1-4)GlcNAc(b1-4)GlcNAc
# In short: as §1
# [17] = molecular target: Neu5Ac(a2-3)Gal(b1-4)GlcNAc(b1-3)Gal
# In short: as §1
# [18] = molecular target: Neu5Ac(a2-3)Gal(b1-4)GlcNAc(b1-3)Gal(b1-3)GlcNAc
# In short: as §1
# [19] = molecular target: Neu5Ac(a2-3)Gal(b1-4)GlcNAc(b1-3)Gal(b1-4)GlcNAc
# In short: as §1
# [20] = molecular target: Neu5Ac(a2-3)Gal(b1-4)GlcNAc(b1-3)Gal(b1-4)GlcNAc(b1-2)Man(a1-3)[Neu5Ac(a2-3)Gal(b1-4)GlcNAc(b1-3)Gal(b1-4)GlcNAc(b1-2)Man(a1-6)]Man(b1-4)GlcNAc(b1-4)GlcNAc
# In short: as §1
# [21] = molecular target: Neu5Ac(a2-3)Gal(b1-4)GlcNAc(b1-3)Gal(b1-4)GlcNAc(b1-3)Gal(b1-4)GlcNAc
# In short: as §1
# [22] = molecular target: Neu5Ac(a2-3)Gal(b1-4)GlcNAc(b1-3)Gal(b1-4)GlcNAc(b1-3)Gal(b1-4)GlcNAc(b1-2)Man(a1-3)[Neu5Ac(a2-3)Gal(b1-4)GlcNAc(b1-3)Gal(b1-4)GlcNAc(b1-3)Gal(b1-4)GlcNAc(b1-2)Man(a1-6)]GalNAc
# In short: as §1
# [23] = molecular target: Neu5Ac(a2-3)Gal(b1-4)GlcNAc(b1-3)Gal(b1-4)GlcNAc(b1-3)GalNAc
# In short: as §1
# [24] = molecular target: Neu5Ac(a2-3)Gal(b1-4)GlcNAc(b1-3)Gal(b1-4)GlcNAc(b1-3)[Neu5Ac(a2-3)Gal(b1-4)GlcNAc(b1-3)Gal(b1-4)GlcNAc(b1-6)]GalNAc
# In short: as §1
# [25] = molecular target: Neu5Ac(a2-3)Gal(b1-4)GlcNAc(b1-3)Gal(b1-4)GlcNAc(b1-6)[Gal(b1-3)]GalNAc
# In short: as §1
# [26] = molecular target: Neu5Ac(a2-3)Gal(b1-4)GlcNAc(b1-3)Gal(b1-4)[Fuc(a1-3)]GlcNAc
# In short: as §1
# [27] = molecular target: Neu5Ac(a2-3)Gal(b1-4)GlcNAc(b1-3)GalNAc
# In short: as §1
# [28] = molecular target: Neu5Ac(a2-3)Gal(b1-4)GlcNAc(b1-3)[Neu5Ac(a2-3)Gal(b1-4)GlcNAc(b1-6)]GalNAc
# In short: as §1
# [29] = molecular target: Neu5Ac(a2-3)Gal(b1-4)GlcNAc(b1-6)GalNAc
# In short: as §1
# [30] = molecular target: Neu5Ac(a2-3)Gal(b1-4)GlcNAc(b1-6)[Gal(b1-3)]GalNAc
# In short: as §1
# [31] = molecular target: Neu5Ac(a2-3)Gal(b1-4)GlcNAc(b1-6)[Neu5Ac(a2-3)Gal(b1-3)]GalNAc
# In short: as §1
# [32] = molecular target: Neu5Ac(a2-3)Gal(b1-4)GlcNAc6S
# In short: as §1
# [33] = molecular target: Neu5Ac(a2-3)Gal(b1-4)[Fuc(a1-3)]GlcNAc
# In short: as §1
# [34] = molecular target: Neu5Ac(a2-3)Gal(b1-4)[Fuc(a1-3)]GlcNAc(b1-2)Man
# In short: as §1
# [35] = molecular target: Neu5Ac(a2-3)Gal(b1-4)[Fuc(a1-3)]GlcNAc(b1-3)Gal
# In short: as §1
# [36] = molecular target: Neu5Ac(a2-3)Gal(b1-4)[Fuc(a1-3)]GlcNAc(b1-3)Gal(b1-4)GlcNAc
# In short: as §1
# [37] = molecular target: Neu5Ac(a2-3)Gal(b1-4)[Fuc(a1-3)]GlcNAc(b1-3)Gal(b1-4)[Fuc(a1-3)]GlcNAc(b1-3)Gal(b1-4)[Fuc(a1-3)]GlcNAc
# In short: as §1
# [38] = molecular target: Neu5Ac(a2-3)Gal(b1-4)[Fuc(a1-3)]GlcNAc(b1-3)GalNAc
# In short: as §1
# [39] = molecular target: Neu5Ac(a2-3)Gal(b1-4)[Fuc(a1-3)]GlcNAc(b1-6)[Gal(b1-3)]GalNAc
# In short: as §1
# [40] = molecular target: Neu5Ac(a2-3)Gal(b1-4)[Fuc(a1-3)]GlcNAc(b1-6)[Neu5Ac(a2-3)Gal(b1-3)]GalNAc
# In short: as §1
# [41] = molecular target: Neu5Ac(a2-3)Gal(b1-4)[Fuc(a1-3)]GlcNAc6S
# In short: as §1
# [42] = molecular target: Neu5Ac(a2-3)Gal6S(b1-4)GlcNAc
# In short: as §1
# [43] = molecular target: Neu5Ac(a2-3)Gal6S(b1-4)[Fuc(a1-3)]GlcNAc
# In short: as §1
# Neu5Ac(a2-3)GalNAc = molecular target: Neu5Ac(a2-3)GalNAc
# In short: as §1
binder,measurement,setting,value
Fm1D (Escherichia coli) (protein) FSCNVDGGSSIGAGTTSVYVNLDPVIQPGQNLVVDLSQHISCWNDYGGWYDTDHINLVQGSAFAGSLQSYKGSLYWNNVTYPFPLTTNTNVLDIGDKTPMPLPLKLYITPVGAAGGVVIKAGEVIARIHMYKIATLGSGNPRNFTWNIISNNSVVMPTHHHHHH,glycan array binding signal (z-score),[1],-0.131
same,glycan array binding signal (z-score),[2],-0.142
same,glycan array binding signal (z-score),[3],-0.141
same,glycan array binding signal (z-score),[4],-0.142
same,glycan array binding signal (z-score),[5],-0.146
same,glycan array binding signal (z-score),[6],-0.136
same,glycan array binding signal (z-score),Neu5Ac(a2-3)Gal(b1-4)Glc,-0.141
same,glycan array binding signal (z-score),[7],-0.145
same,glycan array binding signal (z-score),[8],-0.14
same,glycan array binding signal (z-score),[9],-0.145
same,glycan array binding signal (z-score),[10],-0.147
same,glycan array binding signal (z-score),[11],-0.144
same,glycan array binding signal (z-score),[12],-0.144
same,glycan array binding signal (z-score),[13],-0.147
same,glycan array binding signal (z-score),[14],-0.144
same,glycan array binding signal (z-score),[15],-0.137
same,glycan array binding signal (z-score),[16],-0.144
same,glycan array binding signal (z-score),[17],-0.146
same,glycan array binding signal (z-score),[18],-0.149
same,glycan array binding signal (z-score),[19],-0.14
same,glycan array binding signal (z-score),[20],-0.145
same,glycan array binding signal (z-score),[21],-0.144
same,glycan array binding signal (z-score),[22],-0.134
same,glycan array binding signal (z-score),[23],-0.15
same,glycan array binding signal (z-score),[24],-0.14
same,glycan array binding signal (z-score),[25],1.11
same,glycan array binding signal (z-score),[26],-0.146
same,glycan array binding signal (z-score),[27],-0.145
same,glycan array binding signal (z-score),[28],-0.141
same,glycan array binding signal (z-score),[29],-0.143
same,glycan array binding signal (z-score),[30],5.29
same,glycan array binding signal (z-score),[31],-0.14
same,glycan array binding signal (z-score),[32],-0.145
same,glycan array binding signal (z-score),[33],-0.145
same,glycan array binding signal (z-score),[34],-0.14
same,glycan array binding signal (z-score),[35],-0.145
same,glycan array binding signal (z-score),[36],-0.14
same,glycan array binding signal (z-score),[37],-0.102
same,glycan array binding signal (z-score),[38],-0.137
same,glycan array binding signal (z-score),[39],0.585
same,glycan array binding signal (z-score),[40],-0.141
same,glycan array binding signal (z-score),[41],-0.147
same,glycan array binding signal (z-score),[42],-0.144
same,glycan array binding signal (z-score),[43],-0.141
same,glycan array binding signal (z-score),Neu5Ac(a2-3)GalNAc,-0.148
